Read counts are not given, so values of variants with three or more changes are uncertain.
B1: CPEB3 Ribozyme (parent)
chain: UAACAGGGGGCCACAGCAGAAGCGUUCACGUCGCAGCCCCUGUCAGAUUCUGGUGAAUCUGCGAAUUCUGCUGUAUAUCUC

Variants of: B1
Experiment: self-cleavage, relative activity (ratio to wild type); higher = more cleavage; in vitro, sequencing
Outline: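 Barcoded CPEB3 ribozyme mutants, produced by rounds of error-prone PCR, self-cleaved while being transcribed with T7 RNA polymerase for 5 hours at 37°C and during a subsequent 15 min DNase I step before EDTA was added. Sequencing of template-switched cDNA on Illumina gave cleaved and total reads, and DNA sequencing assigned barcodes to variants. Each variant's relative activity is its cleaved/total read fraction divided by the unmutated ribozyme's fraction, averaged across three batches. A variant needed a minimum of 5 reads.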

Row | Variant | self-cleavage
1 | A15U U25C G33A G46A | 0.19
2 | A15U U25C G63A | 0.48
3 | A15U U25C U26C U31C U41C U72C | 0.09
4 | A15U U25C U26C U41C | 0.21
5 | A15U U25C U31C U48A U80C | 0.3
6 | A15U U25C U41A | 0.07
7 | A15U U25C U41A U60C A77U U80C | 0.07
8 | A15U U25C U41C | 0.4
9 | A15U U25C U43A C44U U51C U60C | 0.07
10 | A15U U25C U43A C62U U67C | 0.19
11 | A15U U25C U43A U51C | 0.42
12 | A15U U25C U43G A56G U74C | 0.23
13 | A15U U25C U51A U67C U69C | 0.1
14 | A15U U25C U58C G63U | 0.09
15 | A15U U25C U69A | 0.09
16 | A15U U25C U69A U72G | 0.32
17 | A15U U25C U80A | 0.07
18 | A15U U25C U80C | 0.17
19 | A15U U26A A28G U43A U72A | 0.04
20 | A15U U26A A35U G53A A64U | 0.08
21 | A15U U26A C27U C39A A45U A47G U58C | 0.03
22 | A15U U26A G42A C62G U78G | 0.06
23 | A15U U26A U43A U51C A57G U66C | 0.14
24 | A15U U26A U54A A57G | 0.3

Row | Variant | self-cleavage
25 | A15U U26C A28C C71U A75G | 0.11
26 | A15U U26C A47G U49A C81U | 0.27
27 | A15U U26C C32U U60C | 0.08
28 | A15U U26C G30A U48C A64G U80C | 0.13
29 | A15U U26C G36U U72C | 0.2
30 | A15U U26C U41C A77G | 0.5
31 | A15U U26C U43C U69C A77G | 0.26
32 | A15U U26C U43G | 0.39
33 | A15U U26C U48A U49C U51A A64G | 0.09
34 | A15U U26C U48C U51C | 0.06
35 | A15U U26C U49C U74C | 0.5
36 | A15U U26C U51C A64G U80C | 0.22
37 | A15U U26C U54G G61A | 0.2
38 | A15U U26C U60C U67C C68G U78C | 0.06
39 | A15U U26C U66A G73A | 0.5
40 | A15U U26G A57G U66A U78A | 0.09
41 | A15U U26G A65U | 0.36
42 | A15U U26G U54A A65U | 0.06
43 | A15U U31A A35G A77G U78C | 1.17
44 | A15U U31A A45U U76C | 0.12
45 | A15U U31A A47G U49C | 0.2
46 | A15U U31A A47G U51A U54A U66C U80A | 0.14
47 | A15U U31A A47U U58C A64U | 0.04
48 | A15U U31A A56G A65G | 0.15

Row | Variant | self-cleavage
49 | A15U U31A C34G A35U U54C A64G U67C | 0.1
50 | A15U U31A U48C U72C | 0.29
51 | A15U U31A U49C | 0.22
52 | A15U U31A U60A | 0.18
53 | A15U U31A U69A U72A | 0.13
54 | A15U U31C A35C | 0.36
55 | A15U U31C A35G U78A | 1.1
56 | A15U U31C A77G | 0.43
57 | A15U U31C C32U | 0.13
58 | A15U U31C C79G | 0.72
59 | A15U U31C G42A U60C | 0.13
60 | A15U U31C U41A U66C | 0.08
61 | A15U U31C U41C U43C | 0.23
62 | A15U U31C U43C A65G | 0.06
63 | A15U U31G A65G | 0.42
64 | A15U U31G U41A A64U | 0.07
65 | A15U U31G U48C A65U | 0.07
66 | A15U U31G U67C | 0.33
67 | A15U U41A C50A | 0.36
68 | A15U U41A C68U U80C | 0.22
69 | A15U U41A U48A A56G U67C U78C | 0.07
70 | A15U U41A U51A U60C | 0.12
71 | A15U U41A U60C U72C | 0.2
72 | A15U U41C A45G A65G U67C U69C | 0.12

Row | Variant | self-cleavage
73 | A15U U41C A56G U69A U72A | 0.28
74 | A15U U41C A64U | 0.3
75 | A15U U41C U43A A45U | 0.14
76 | A15U U41C U43C C71U | 0.16
77 | A15U U41C U60A A64U U72C U78C | 0.17
78 | A15U U41C U78C | 0.82
79 | A15U U41G U54C U76C | 0.11
80 | A15U U43C A56U C59A U80C | 0.12
81 | A15U U43C C50G | 0.25
82 | A15U U43C G46A U67A U72C | 0.11
83 | A15U U43C U48C U66C | 0.12
84 | A15U U43C U49C A56G U58C U78G | 0.18
85 | A15U U43C U51A U60A U66C U72C | 0.1
86 | A15U U43C U54C | 0.17
87 | A15U U43C U54C U60C | 0.19
88 | A15U U43C U76C | 0.58
89 | A15U U48A U66C U67A U69C A75G | 0.07
90 | A15U U48C A57G U69C | 0.09
91 | A15U U48C A75G U76C | 0.25
92 | A15U U48C U72A | 0.51
93 | A15U U49A U74C | 0.63
94 | A15U U49A U74G | 0.22
95 | A15U U49C U66C U72A | 0.1
96 | A15U U49C U72A | 0.07

Row | Variant | self-cleavage
97 | A15U U49C U72C | 0.14
98 | A15U U51A A56G U69C U78C | 0.14
99 | A15U U51A A77G | 0.69
100 | A15U U51C U66A A75U U78C | 0.13
101 | A15U U51C U72C | 0.83
102 | A15U U51C U74C | 1.04
103 | A15U U54A A56G U69C | 0.16
104 | A15U U54A C62U | 0.24
105 | A15U U54A U60A U67C U69A | 0.2
106 | A15U U54A U66C A77U C81A | 0.29
107 | A15U U54A U74A | 0.96
108 | A15U U54C A56U | 0.14
109 | A15U U54C U60C A77G | 0.36
110 | A15U U54C U72C | 0.61
111 | A15U U58C A65G U74A | 0.12
112 | A15U U60C C62U A75U | 0.12
113 | A15U U60C U66C | 0.14
114 | A15U U66C U72C U74C | 0.17
115 | A15U U67A U76C | 0.35
116 | A15U U69A U80A | 0.14
117 | A15U U69C A77U U80C | 0.2
118 | A15U U72C U74C | 1.01
119 | G16A A18G C62U U67A | 0.18
120 | G16A A18U U31C U60C A77G | 0.31

Row | Variant | self-cleavage
121 | G16A A20C C29U C50U | 0.11
122 | G16A A20G A28U U69A A75U | 0.08
123 | G16A A20G A45U A47G U48C U60A | 0.07
124 | G16A A20G C40U U49C U51A U54C | 0.11
125 | G16A A20G G36U U48C U66G | 0.12
126 | G16A A20U C39U U74A U80C | 0.06
127 | G16A A21G U51C | 0.24
128 | G16A A21G U72C | 0.21
129 | G16A A28G A35G U41C A56G U76A U80A | 0.13
130 | G16A A28G U41A A45G U49C U69A U78C | 0.04
131 | G16A A28G U58A | 0.15
132 | G16A A35G U41A A56U A57U A77G | 0.04
133 | G16A A35U A56U U58C U78C | 0.05
134 | G16A A35U G46U | 0.35
135 | G16A A35U U49C A65G | 0.06
136 | G16A A47U U60G | 0.21
137 | G16A A56G A57G C71U | 0.21
138 | G16A A56G G61A U72C | 0.1
139 | G16A A56G U58G U60A | 0.08
140 | G16A A56U A65C C68U U69A | 0.07
141 | G16A A56U A77G | 0.09
142 | G16A A56U U80G | 0.1
143 | G16A A75C U80A | 1.1
144 | G16A C23U C29G U41C U72C | 0.09

Row | Variant | self-cleavage
145 | G16A C29U U43C G46U | 0.11
146 | G16A C29U U72G U78C U80A | 0.07
147 | G16A C34U C37A U74C U80C | 0.28
148 | G16A C37U U54A U80A | 0.68
149 | G16A C38U C62A G73A | 0.09
150 | G16A G19U U43A A57G U72C | 0.08
151 | G16A G24A C39A U49C U58C U72C | 0.05
152 | G16A G33A U51C U54A A77G | 0.14
153 | G16A U25A U26C C29U G33A C50A A77C | 0.07
154 | G16A U25C A35G A45G | 0.12
155 | G16A U25C A45U | 0.12
156 | G16A U25C A45U U80A | 0.07
157 | G16A U25C U26C U51A A56G | 0.07
158 | G16A U25C U31A | 0.06
159 | G16A U25C U80C | 0.21
160 | G16A U26C A45G A57G U67C U72C A75U | 0.14
161 | G16A U26C G53C U60A | 0.35
162 | G16A U26C U41A U80A | 0.3
163 | G16A U26C U41C A45G U51A A57U C62A | 0.09
164 | G16A U26C U60C U72G U74A | 0.12
165 | G16A U31A U51A | 0.25
166 | G16A U31C A56U A77G U80A | 0.07
167 | G16A U31C U74C U78A | 0.43

Reference: the RNAGym collection of RNA variant scans (doi:10.1093/nar/gkz1192)
